# Assay results taken from PubChem BioAssay (Tox21).
# “And” between values parts separate entries of the source, which are not always exact repeats. Equal entries are not always repeated. Inconclusive results, whose numbers are uncertain, are shown with a selection of clear calls. Potencies beside an inconclusive call are fits to weak or partial responses and may not hold up. The source made the active and inactive calls. Calls follow the shape of the dose curve; as a rule, active = well fitted curve in the direction sought with a large enough effect in the repeat runs; inconclusive = weak or mixed curves; inactive = no such curve, though single readings can be large; an effect the other way counts as inactive or inconclusive.
# Tests used:
# [1] = Caspase-3/7 induction in HepG2 cells by small molecules, qHTS assay (AID 1346978); also: nearly all actives have a fitted effect of over 15% in size
# Method in brief: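 Caspase-3/7 induction was measured by Caspase-Glo 3/7 luminescence (30 min, room temperature) after a 17 hr compound exposure of wild-type HepG2 cells seeded at 2,000 per well and pre-incubated 5 hr.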
# [2] = Caspase-3/7 induction in CHO-K1 cells by small molecules, qHTS cell viability counter screen (AID 1346979); also: nearly all actives have a fitted effect of over 35% in size
# Method in brief: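 Viability readout by fluorescence (CellTiter-Fluor) on wild-type CHO-K1 cells exposed for 16hr at 37C and 5% CO2 to compounds delivered in DMSO; reagent incubated 1hr before reading.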
# [3] = biological target: Nuclear receptor subfamily 1 group I member 2 (Homo sapiens) (UniProt O75469); test: Human pregnane X receptor (PXR) small molecule agonists, qHTS assay (AID 1346982); also: nearly all actives have a fitted effect of over 35% in size
# Method in brief: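 After plating in 5% charcoal-stripped FBS and a 5 hr rest, PXR-Luc HepG2 cells received compounds in DMSO. Following 24 hr at 37 C, ONE-Glo was added and light output read.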
# [4] = Caspase-3/7 induction in CHO-K1 cells by small molecules, qHTS assay (AID 1346980); also: nearly all actives have a fitted effect of over 15% in size
# Method in brief: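 Luminescent Caspase-Glo 3/7 read (30min, room temperature) quantified apoptosis induction. Cells were wild-type CHO-K1, treated with compound for 17hr at 37 C and 5% CO2.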
# [5] = Caspase-3/7 induction in HepG2 cells by small molecules, qHTS cell viability counter screen (AID 1346981); also: nearly all actives have a fitted effect of over 30% in size
# Method in brief: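 The parent HepG2 line is plated at 2,000 cells per well and rested 5 hr before compound pinning from DMSO stocks. Following a 16-hr treatment at 37 C, a fluorogenic live-cell substrate (CellTiter-Fluor) reports viability after 1 hr.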
# [6] = biological target: Nuclear receptor subfamily 1 group I member 2 (Homo sapiens) (UniProt O75469); test: CYP3A4 induction through human pregnane X receptor (PXR) by small molecules, qHTS assay (AID 1346984); also: nearly all actives have a fitted effect of over 40% in size
# Method in brief: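 Human PXR activation is tracked via CYP3A4 promoter-luciferase in DPX-2 (HepG2) cells. Compounds treat cells for 24hr at 37C, and luminescence is read after One-Glo.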
# [7] = biological target: Nuclear receptor subfamily 1 group I member 2 (Homo sapiens) (UniProt O75469); test: Human pregnane X receptor (PXR) activation by small molecules, qHTS assay (AID 1346985); also: nearly all actives have a fitted effect of over 40% in size
# Method in brief: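 DPX-2 cells (HepG2 co-transfected with a PXR response element and a CYP3A4-promoter luciferase construct) were seeded at 2,000 per well, rested 5 hr at 37C, then exposed to DMSO-dissolved compounds for 24 hr. Activation was read as luciferase luminescence.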
# [8] = biological target: Cytochrome P450 2C19 (Homo sapiens) (UniProt P33261); test: Cytochrome P450 Family 2 Subfamily C Member 19 (CYP2C19) small molecule antagonists: luciferase reporter qHTS assay (AID 1671197); also: nearly all actives have a fitted effect of over 65% in size
# Method in brief: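 P450-Glo CYP2C19 system: enzyme-substrate mix with compound 10 min at room temperature, then NADPH regeneration solution, 1 h at 37C. Proluciferin-to-luciferin conversion detected by luminescence after 20 min with detection reagent; ketoconazole as positive control.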
# [9] = biological target: Cytochrome P450 2D6 (Homo sapiens) (UniProt P10635); test: Cytochrome P450 Family 2 Subfamily D Member 6 (CYP2D6) small molecule antagonists: luciferase reporter qHTS assay (AID 1671196); also: nearly all actives have a fitted effect of over 50% in size
# Method in brief: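 Quantitative HTS of Tox21 chemicals against CYP2D6 using a luminescent proluciferin substrate. After NADPH addition, 1 h room-temperature reaction; luminescence recorded 20 min post detection reagent.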
# Potency is read from the fitted curve at half-maximal effect; tags tell the direction and shape of the fitted curve.
# Sequence of UniProt P33261 (P33261 whole entry, looked up): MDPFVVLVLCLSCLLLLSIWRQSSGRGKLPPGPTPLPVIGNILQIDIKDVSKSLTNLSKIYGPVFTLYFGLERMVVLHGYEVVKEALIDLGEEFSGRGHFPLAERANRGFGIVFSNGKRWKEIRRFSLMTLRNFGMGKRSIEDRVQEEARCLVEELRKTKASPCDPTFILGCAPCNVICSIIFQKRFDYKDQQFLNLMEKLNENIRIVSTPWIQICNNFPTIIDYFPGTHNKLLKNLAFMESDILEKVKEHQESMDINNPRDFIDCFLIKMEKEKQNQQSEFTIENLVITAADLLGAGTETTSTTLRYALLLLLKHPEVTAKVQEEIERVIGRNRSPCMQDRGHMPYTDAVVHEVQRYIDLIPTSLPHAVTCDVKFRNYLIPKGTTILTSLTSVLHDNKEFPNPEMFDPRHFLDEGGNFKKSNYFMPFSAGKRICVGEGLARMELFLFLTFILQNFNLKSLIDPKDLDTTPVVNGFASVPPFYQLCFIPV
# Sequence of UniProt P10635 (P10635 whole entry, looked up): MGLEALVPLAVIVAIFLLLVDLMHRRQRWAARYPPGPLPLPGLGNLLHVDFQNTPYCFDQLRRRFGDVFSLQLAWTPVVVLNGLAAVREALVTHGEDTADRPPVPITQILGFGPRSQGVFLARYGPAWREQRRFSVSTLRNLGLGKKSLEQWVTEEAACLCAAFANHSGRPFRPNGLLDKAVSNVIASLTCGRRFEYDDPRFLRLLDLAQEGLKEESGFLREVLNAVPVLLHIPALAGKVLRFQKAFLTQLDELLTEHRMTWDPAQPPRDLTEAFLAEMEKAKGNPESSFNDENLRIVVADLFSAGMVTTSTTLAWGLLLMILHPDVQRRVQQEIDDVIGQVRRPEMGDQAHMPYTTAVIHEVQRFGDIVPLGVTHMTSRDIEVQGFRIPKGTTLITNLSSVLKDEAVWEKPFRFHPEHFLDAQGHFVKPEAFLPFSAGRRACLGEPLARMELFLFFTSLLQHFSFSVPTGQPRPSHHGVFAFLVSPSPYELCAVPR
structure (smiles),measurement,setting,value
Oc1ccc(Cl)cc1C1CCCC1,Potency,[1],inconclusive: 68.6 µM [activator]
same,Potency,[2],"inconclusive: 77 µM [cytotoxic, partial curve, poor fit]"
same,Potency,[3],active: 68.6 µM
COc1cc(/C=C/C(=O)CC(=O)/C=C/c2ccc(O)c(OC)c2)ccc1O,Potency,[1],"inconclusive: 27.5 µM [activator, single point]"
same,Potency,[2],active: 43.5 µM
COc1ccc2[nH]cc(CCNC(C)=O)c2c1,Potency,[1],"inconclusive: 69.6 µM [activator, partial curve, poor fit]"
CCCN(CCC)C(=O)C(CCC(=O)OCCCN1CCN(CCOC(=O)Cc2c(C)n(C(=O)c3ccc(Cl)cc3)c3ccc(OC)cc23)CC1)NC(=O)c1ccccc1 (stereo unspecified),Potency,[1],"inconclusive: 33.5 µM [activator, single point]"
CCCCCCCCCCOCC(O)CN (stereo unspecified),Potency,[1],active: 29.8 µM
same,Potency,[2],active: 33.5 µM
same,Potency,[4],"inconclusive: 33.5 µM [activator, single point]"
same,Potency,[5],"inconclusive: 33.5 µM [cytotoxic, single point]"
same,Potency,[6],"inconclusive: 14.1 µM [activator, single point]"
same,Potency,[7],"inconclusive: 28.2 µM [activator, single point]"
CC=O,Potency,[1],"inconclusive: 71.7 µM [activator, single point]"
same,Potency,[4],"inconclusive: 71.7 µM [activator, single point]"
same,Potency,[8],"inconclusive: 93.5 µM [inhibitor, single point]"
O=C(Oc1cccc2cccnc12)c1ccccc1,Potency,[1],"inconclusive: 18.8 µM [activator, partial curve]"
same,Potency,[5],"inconclusive: 21.1 µM [cytotoxic, partial curve]"
same,Potency,[3],"inconclusive: 0.944 µM [activator, partial curve]"
COc1cc(-c2nc(NC(=O)c3cc4cc(C)cc(C)c4n3CC(=O)O)sc2CCC2CCCCC2)c(OC)cc1Cl,Potency,[1],inconclusive: 56 µM [activator]
same,Potency,[8],"inconclusive: 73 µM [inhibitor, single point]"
CC(C)CCCCCCc1ccc(O)cc1,Potency,[1],active: 55.4 µM and active: 68.6 µM
same,Potency,[4],"active: 24.8 µM and inconclusive: 61.1 µM [activator, partial curve]"
same,Potency,[5],"inconclusive: 68.6 µM [cytotoxic, single point]"
same,Potency,[7],active: 28.2 µM
COc1ccc2nc(S(=O)Cc3ncc(C)c(OC)c3C)[nH]c2c1 (stereo unspecified),Potency,[2],"active: 67.8 µM and inconclusive: 37.6 µM [cytotoxic, single point]"
O=C1OC(=O)c2cc(-c3ccc4c(c3)C(=O)OC4=O)ccc21,Potency,[1],inactive
same,Potency,[3],"inconclusive: 61.1 µM [activator, single point]"
Oc1ccc(Cl)cc1Cc1cc(Cl)ccc1O,Potency,[1],"inconclusive: 69.8 µM [activator, single point]"
same,Potency,[5],"active: 55.5 µM and inconclusive: 27.3 µM [cytotoxic, single point] and inconclusive: 21.1 µM [cytotoxic, partial curve]"
same,Potency,[3],"inconclusive: 33.5 µM [activator, single point]"
same,Potency,[6],"inconclusive: 17.8 µM [activator, partial curve, poor fit]"
same,Potency,[9],"inconclusive: 72.3 µM [inhibitor, partial curve, poor fit] and inconclusive: 71 µM [inhibitor, partial curve, poor fit] and inconclusive: 43.6 µM [inhibitor, partial curve, poor fit]"
O=C1NCN(c2ccccc2)C12CCN(CCCC(c1ccc(F)cc1)c1ccc(F)cc1)CC2,Potency,[1],"inconclusive: 33.5 µM [activator, single point]"
same,Potency,[4],"inconclusive: 33.5 µM [activator, single point]"
same,Potency,[5],active: 26.6 µM
same,Potency,[8],"inconclusive: 38.9 µM [inhibitor, single point]"
Cc1oc(-c2ccccc2)nc1CCOc1ccc(C[C@H](Nc2ccccc2C(=O)c2ccccc2)C(=O)O)cc1,Potency,[1],"inconclusive: 68.6 µM [activator, single point]"
same,Potency,[4],"inconclusive: 30.6 µM [activator, partial curve]"
same,Potency,[3],"inconclusive: 77 µM [activator, single point]"
same,Potency,[8],"inconclusive: 89.4 µM [inhibitor, single point]"
